# Experimental data taken from PubChem BioAssay (NCATS).
# The shares of active, inactive and inconclusive entries below differ from those in the screen. The source made the active and inactive calls. Calls follow the shape of the dose curve; as a rule, active = well fitted curve in either direction with a large enough effect (not every such curve was filed as active); inconclusive = small, poorly fitted or top-dose-only effect, or another doubt; inactive = flat fitted curve, though single readings scatter.
# Assay: NFAT Signaling Pathway (AID 444);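 also: carbachol stimulus at about its EC50 of 1 µM final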
# Conditions: Jurkat NFAT-bla M1, carbachol, beta-lactamase ratio, 5 h; at 17.2 µM (top of the series) unless noted
# In short: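 Jurkat cells with NFAT-driven β-lactamase reporter and co-expressed M1 receptor, stimulated with carbachol (final 1 uM, ~EC50), compound titration, 5 h at 37 °C. CCF4 loaded 1 h at RT; 460/530 nm ratio gave %activity and AC50.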
# % is scaled to controls: 0 for no effect and ±100 for the full control effect.
row,SMILES,"activity change, negative = inhibition"
1,CCOC(=O)C1CCN(c2nc3ccccc3nc2C(C#N)C(=O)OC(C)COC)CC1 (stereo not given),inconclusive: -36.2% [inhibitor]
2,COc1ccc(C2NC(=O)NC(O)(C(F)(F)F)C2C(=O)c2ccc(F)cc2)cc1 (stereo not given),inconclusive: -70.3% [inhibitor]
3,Cc1ccc2[nH]c3c(c2c1)CN(C(=O)CN1CC(C)OC(C)C1)CC3 (stereo not given),inactive: -2.75%
4,Cc1cc(C)cc(CC2CC(=O)N(c3cc(C)on3)C2=O)c1 (stereo not given),inactive: -3.65%
5,CCOc1ccc(C2C(C(=O)c3ccc(C)o3)=C(O)C(=O)N2CCN2CCOCC2)cc1OC (stereo not given),inactive: 4.63%
6,NC(N)=N/N=C\c1ccc(C2CCNCC2)cc1,inactive: -11.8% [at 7.69 µM]
7,N#Cc1ccc(CN2CCC3(CC2)CCN(C(=O)c2cc(C(F)(F)F)cc(C(F)(F)F)c2)CC3)cc1,inconclusive: -58.7% [inhibitor] [at 7.69 µM]
8,CCOC(=O)C1=C(C)N=C2SC(C)C(=O)N2C1c1cccc(F)c1 (stereo not given),inactive: 7.16%
9,O=C(c1cnccn1)N1CCC2(CCCN(c3ccccc3)C2)CC1,inactive: 5.12% [at 7.69 µM]
10,CCN(CC)CCCn1c(C)cc2c(c1=O)C(c1ccc(OC)c(OC)c1OC)C(C#N)=C(N)O2 (stereo not given),inconclusive: -24.1% [inhibitor]
11,CCOC(=O)C1=C(CSc2nc3c(cc2C#N)CCC3)OC(N)=C(C#N)C1c1ccccc1 (stereo not given),inconclusive: -54.8% [inhibitor]
12,Cc1noc(C)c1-c1nccc(N(C)C)n1,inactive: -4.83% [at 7.69 µM]
13,CC1CN(C2CCN(S(=O)(=O)c3ccc4ccccc4c3)CC2)CC(C)O1 (stereo not given),inactive: -12.1%
14,COc1ccccc1C(=O)NCC(=O)n1nc(C)cc1C,inactive: -5.21%
15,CC(C)OC(=O)CCNc1n[nH]c(=O)[nH]c1=O,inactive: 0.573%
16,O=C1OC(Nc2ccc(Br)cc2F)c2ccccc21 (stereo not given),inconclusive: 4.93% [inhibitor]
17,COc1ccc(C2C(C#N)=C(SC)NC3=C2C(=O)CC(C)(C)C3)cc1 (stereo not given),inconclusive: 4.53% [activator]
18,CN(C)CCNC(=O)C12CC3(C)CC(C)(CC(C)(C3)C1)C2,inactive: -25.2%
19,O=C1C=C(O)CC(c2cccs2)C1 (stereo not given),inactive: -1.83%
20,COCC(=O)N1CCC2(CCN(Cc3ccccc3)CC2)CC1,inconclusive: -38.3% [inhibitor] [at 7.69 µM]

row,SMILES,"activity change, negative = inhibition"
1,O=S(=O)(c1ccccc1)N1CCC(N2CCCCCC2)CC1,inconclusive: -68.3% [inhibitor]
2,COc1ccc(CCn2c(=N)c(C(=O)NCc3ccco3)cc3c(=O)n4ccccc4nc32)cc1OC,inconclusive: -74.6% [inhibitor]
3,O=C(CCN1C(=O)c2ccccc2C1=O)OCN1C(=O)c2ccccc2C1=O,inconclusive: -40.9% [inhibitor]
4,O=C(NC[C@H]1CCCCN1)c1cc(OCC(F)(F)F)ccc1OCC(F)(F)F,inactive: -11% [at 38 µM]
5,COCCNc1nc(-c2ccoc2)nc2ccccc12,inactive: -13.7% [at 7.69 µM]
6,Cc1cc(C)n(-c2c(F)c(F)c(CN3CCCCC3)c(F)c2F)n1,inactive: -27.9%
7,COC(=O)C(NC(C)=O)(Nc1ccccc1)C(=O)OC,inactive: -1.66%
8,CNc1oc(-c2ccc(Cl)cc2)nc1C#N,inactive: 18.3%
9,COc1ccc(NC(=O)N2CCCC3(CCNCC3)C2)cc1,inactive: 1.68% [at 7.69 µM]
10,COc1cccc(C(=O)OCCN(C)C(C)(C)C)c1,inconclusive: -52% [inhibitor]
11,Cc1c(N=Cc2c(O)n(C3CCCCC3)c(=O)[nH]c2=O)c(=O)n(-c2ccccc2)n1C,inconclusive: -69.5% [inhibitor]
12,O=C(O)CCc1nn2cc(-c3ccccc3)nc2[nH]c1=O,inactive: -22.2%
13,Cc1occc(=O)c1OC(=O)Nc1ccccc1,inactive: 1.25%
14,Cc1ccccc1-c1cc(N(C)C)ncn1,inactive: -0.723% [at 7.69 µM]
15,CN(C)c1cccc2c(S(=O)(=O)N3CCOCC3)cccc12,inactive: -4.98%
16,CC(C)Sc1nc(N2CCCC2)c2c(c1C#N)CC(C)(C)OC2,inconclusive: -63.9% [inhibitor]
17,c1cc2c(cc1C1=Nn3c(nnc3C3CCCCC3)SC1)OCO2,inactive: 14.4%
18,CC1(C)NC(=O)N(CC(O)Cn2nnc3ccccc32)C1=O (stereo not given),inactive: 8.84%
19,O=C(c1csnn1)N1CCC2(CCCN(c3ccccn3)C2)CC1,inconclusive: -62.2% [inhibitor] [at 7.69 µM]
20,COc1ccc2c3c(ccc2c1)N[C@H](C(=O)O)CC3,inconclusive: 31.2% [activator] [at 7.69 µM]
